Source: the supplement of paper PMC3334620
Whole data set: some 33,000 sequences, median “E-score (-0.5 to 0.5)” near -0.011, cut for the highest 2% near 0.28. Some of the results follow.

Molecular target: T1, Gcr1 (UniProt P07261)
T1 sequence: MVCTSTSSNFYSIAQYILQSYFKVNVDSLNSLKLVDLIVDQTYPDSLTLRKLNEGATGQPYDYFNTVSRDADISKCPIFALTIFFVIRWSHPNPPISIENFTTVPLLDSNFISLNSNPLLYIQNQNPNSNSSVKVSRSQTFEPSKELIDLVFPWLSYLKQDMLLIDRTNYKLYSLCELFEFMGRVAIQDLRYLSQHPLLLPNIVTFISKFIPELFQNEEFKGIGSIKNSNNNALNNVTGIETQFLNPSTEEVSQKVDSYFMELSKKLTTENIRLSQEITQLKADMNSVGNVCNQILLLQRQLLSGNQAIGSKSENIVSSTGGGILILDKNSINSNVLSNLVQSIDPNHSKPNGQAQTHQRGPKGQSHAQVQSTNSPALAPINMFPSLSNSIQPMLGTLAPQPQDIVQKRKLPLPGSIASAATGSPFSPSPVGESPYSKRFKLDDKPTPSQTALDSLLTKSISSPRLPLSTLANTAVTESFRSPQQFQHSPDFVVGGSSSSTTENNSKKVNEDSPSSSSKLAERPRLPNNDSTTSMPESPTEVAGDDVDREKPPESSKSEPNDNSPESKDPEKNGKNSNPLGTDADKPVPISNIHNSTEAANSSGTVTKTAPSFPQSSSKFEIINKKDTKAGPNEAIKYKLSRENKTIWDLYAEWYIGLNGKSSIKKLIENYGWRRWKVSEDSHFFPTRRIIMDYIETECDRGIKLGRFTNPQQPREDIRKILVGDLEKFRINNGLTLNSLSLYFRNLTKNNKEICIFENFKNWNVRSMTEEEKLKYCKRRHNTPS
Assay: PBM E-score (8-mer binding enrichment) (E-score (-0.5 to 0.5)); higher = stronger / more preferred TF binding; most listed sequences are background and not binding sites
Conditions: protein concentration: 100 nM; construct: GST-full length
Summary of the method: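 Universal all-10-mer Agilent arrays, double-stranded by primer extension on fresh or once-stripped slides, were probed with about 100-200 nM GST-tagged yeast transcription factors made by PURExpress. Fluorescent anti-GST detected bound protein, and masliner normalised the scans. E-scores from the Universal PBM Analysis Suite were given to each ungapped eight-base word pooled with its reverse complement.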

Sequence	PBM E-score
GCCCGGTA	0.0674
AATGCTTA	-0.0993
AAACGAGA	-0.144
GGGGTCAA	0.0369
AGTGCCTG	0.0177
AGCATGCC	-0.225
GGAAGTCA	0.234
CACGCTAA	-0.183
CGCCCGCA	0.117
AGATCGAG	-0.17
GCCCCCTA	0.079
CAGTTAAC	0.146
GCTGCCCC	0.136
AGGCATGG	-0.0719
ACCCATAA	0.178
CTTCCAAG	-0.132
GTTGCATA	-0.16
GAGCACAC	-0.271
ATCTCGCG	0.13
CAACTGGG	0.0742
TGGCAGAA	0.206
CCCTGTTC	-0.0496
GATCCCCA	0.28
CGAATCTA	0.122
GATACTTA	0.0683

Sequence	PBM E-score
CCAATCGA	0.0476
GACACCGA	0.017
AGCAGCTA	0.273
AACATAAG	0.0293
AACCCACC	0.135
CACTCAGG	-0.0815
ACTGTTTA	-0.0723
AAGCCATG	-0.167
ATGTTAAC	0.0249
AGTCTCAG	-0.0732
ATCTACTA	0.136
CTTTAGTA	0.107
AGCTGTGA	-0.189
GTTGTCCA	-0.239
GTTCGTAA	0.115
AAATCCAG	0.0406
AAGTACTC	-0.00017
CAATAGTA	0.0639
AGAATGAT	-0.0182
ATTTGGAA	0.373
TAATTCCA	0.037
CTAGGATC	0.121
GAGTCCTA	0.0444
ATAGGGTA	-0.191
CTTGCGAC	-0.193

Sequence	PBM E-score
AACTCCAC	-0.0372
AAGGTCAA	0.0136
GCAGAGCA	-0.0499
AGAGACAG	0.00332
AGATTAGC	0.00374
GTGCAGAA	0.1
ACGCTTAT	-0.126
GACCAGGC	-0.00191
GCGCCGGA	0.101
CGGCGATC	-0.0767
CCGGCAGA	0.0729
TGAAGGCA	-0.0834
CATGCATA	-0.145
TCGGTGCA	-0.143
CTCACATA	-0.136
TAGTGGAA	0.42
CGGCCCCA	-0.11
ATCGAGCC	-0.13
GCTTAACA	-0.00163
CAGCAGGA	-0.057
AACCGGGA	0.127
GAACACAC	-0.171
CACAACAG	0.044
CTTGGTCC	-0.0555
AGAATACG	0.182

Sequence	PBM E-score
AAGGGAAG	0.04
TCAGTGCA	-0.0673
AAAGGTTC	0.0119
CAATGGTC	0.012
CAAATCCG	-0.00246
CGATCTAA	-0.0652
GGGGGACC	0.12
AACCCAGT	0.0996
ACAACTCC	-0.0782
GCGACTAC	0.0667
ACTGGCTG	0.13
CCATGCAA	0.157
AAAGCATT	-0.0337
CACTGCCA	0.0738
AAGGTGTA	-0.123
AATTAACA	0.182
TGGCGACA	0.128
TAAAACTA	-0.0014
ATCCGGGG	0.104
CAACCTAG	0.121
AGCCTGGG	-0.0302
AATGCTCC	-0.166
CAGTCCCA	0.0489
GTCGAAAA	-0.0199
ATAATGGC	-0.00297

Sequence	PBM E-score
AGAAGTTC	0.146
CTATACGC	0.0693
CTGCTTCC	0.177
ACGAAGTG	-0.091
ACAATTAT	0.176
ATTTGTGG	0.216
ACCAGACT	-0.0318
CCTAAAAA	0.165
TGGCAAAA	0.0138
CCAGTTAC	0.0958
ATCCCAGG	0.0709
CTCGTTCA	0.0147
GCGTTCAA	0.0424
CTTAAATC	0.0748
TCAAGTAA	-0.0856
ATAAGCCG	0.039
GCATCCTA	0.4
CAGGAGAC	-0.00153
CTTTGCAC	-0.0561
ACATAGCG	0.0113
GCCGTTAA	0.118
AAGAGGTC	0.052
ATCAACTG	0.0446
ACAGCCTA	-0.0457
GCCCCAAC	0.0665

Sequence	PBM E-score
AGGTCATC	-0.355
AATGTTCC	-0.0252
CCCGTCGG	-0.151
GTTCACTA	-0.153
CAATTGCG	-0.0501
ATATAGTG	0.17
ACTCGCAC	-0.0744
ACCGCACG	-0.134
CCCCTATC	0.108
GAAGAGCC	-0.0968
AGTCCGTA	-0.0556
ATGGTATC	0.215
GTTATTGA	0.0372
CAATGGGA	-0.00746
ACGATTCC	0.12
ATGGTGTC	0.135
AGTATCTA	-0.103
AGTGTGCG	-0.157
CCTTAGGC	-0.301
GGATCTGA	0.0524
ATTCGTCA	0.0357
ACCCTGAC	-0.137
GACGCATC	0.198
GTCACTTA	-0.04
TTAATTAA	0.0576

Sequence	PBM E-score
ATGGGCCG	-0.0697
CAATCGCA	-0.253
ACGACTCA	-0.0601
CGCCCACG	-0.0227
CCGCTGTA	0.0833
GGGAAGTA	-0.111
GGTCCTAA	0.162
TCCCCGAA	0.0268
CATAGGCA	0.0323
CGCCTAGA	0.0708
TCCCTTAA	0.0293
GTTGCAGA	0.0564
TTCTACAA	0.0935
GATTATTA	0.136
AATTTAGA	0.108
TAATACAA	-0.0478
CCGGGTCC	0.144
AAGATTAT	-0.169
TCCGCCCA	-0.179
GGTGGCTA	0.0293
AAATCCCA	0.107
CCAACCGC	-0.0449
